Test results reported in patent publication US20090239285A1, “TANDEM REAPEAT DNA CONSTRUCTS PRODUCING PROTEINS THAT ATTACK PLANT PATHOGENIC VIRUSES, FUNGI, AND BACTERIA BY DISRUPTING TRANSCRIPTION FACTORS ESSENTIAL FOR REPLICATION THEREOF IN PLANTS” (priority 2008, published 2009).

Tests used:
[1] = system: pathogenic fungus present in the test tube water; test: Picolinic acid induced resistance of Portulaca against pathogenic fungus (FIG. 31)
[2] = system: normal cells (NRK, BALB 3T3, WI-348); conditions: Untransformed BALB 3T3, NRK and WI-348; cited from earlier work

O=C(O)c1ccccn1 [Picolinic acid, 2-pyridine carboxylic acid]
root system ([1]; continuously exposed to 6 mM PA, 10 days): profuse root system
fungal toxin disease resistance ([1]; treatment with picolinic acid for 10 days): fungal toxin disease resistant
phase of cell cycle block [2]: blocked in G1
